# The campaign covered roughly 350,000 compounds. About 31,000 (8.9%) were called active. Inconclusive means that the source gave no clear call. Such entries were picked first, then a sample of the others. Calls follow the shape of the dose curve; as a rule, active = well fitted inhibition curve with a large enough effect; inconclusive = small, poorly fitted or top-dose-only effect; inactive = no such curve, though single readings can be large or run the other way. A potency beside an inconclusive call is a rough fit, not a confirmed value.
# Molecular target: Histone-lysine N-methyltransferase EHMT2 (Homo sapiens) (UniProt Q96KQ7)
# Assay: qHTS Assay for Inhibitors of Histone Lysine Methyltransferase G9a; also: nearly all actives have a fitted effect of over 75% in size
# Settings: G9a H3K9 monomethylation, AlphaScreen, 2 h; activity, negative = inhibition: at 59 µM (top of the series) unless noted
# Outline: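 Compounds were preincubated with 20 nM G9a for 15 min, after which biotinylated H3K9 peptide (500 nM) and SAM (20 uM) started a 2 h room-temperature reaction. Monomethylated product was quantified by antibody-based AlphaScreen chemiluminescence.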
# % is scaled to controls: 0 for no effect and ±100 for the full control effect; potency is read from the fitted curve at half-maximal effect; tags tell the direction and shape of the fitted curve.
# UniProt Q96KQ7, sequence (Q96KQ7 whole entry, looked up): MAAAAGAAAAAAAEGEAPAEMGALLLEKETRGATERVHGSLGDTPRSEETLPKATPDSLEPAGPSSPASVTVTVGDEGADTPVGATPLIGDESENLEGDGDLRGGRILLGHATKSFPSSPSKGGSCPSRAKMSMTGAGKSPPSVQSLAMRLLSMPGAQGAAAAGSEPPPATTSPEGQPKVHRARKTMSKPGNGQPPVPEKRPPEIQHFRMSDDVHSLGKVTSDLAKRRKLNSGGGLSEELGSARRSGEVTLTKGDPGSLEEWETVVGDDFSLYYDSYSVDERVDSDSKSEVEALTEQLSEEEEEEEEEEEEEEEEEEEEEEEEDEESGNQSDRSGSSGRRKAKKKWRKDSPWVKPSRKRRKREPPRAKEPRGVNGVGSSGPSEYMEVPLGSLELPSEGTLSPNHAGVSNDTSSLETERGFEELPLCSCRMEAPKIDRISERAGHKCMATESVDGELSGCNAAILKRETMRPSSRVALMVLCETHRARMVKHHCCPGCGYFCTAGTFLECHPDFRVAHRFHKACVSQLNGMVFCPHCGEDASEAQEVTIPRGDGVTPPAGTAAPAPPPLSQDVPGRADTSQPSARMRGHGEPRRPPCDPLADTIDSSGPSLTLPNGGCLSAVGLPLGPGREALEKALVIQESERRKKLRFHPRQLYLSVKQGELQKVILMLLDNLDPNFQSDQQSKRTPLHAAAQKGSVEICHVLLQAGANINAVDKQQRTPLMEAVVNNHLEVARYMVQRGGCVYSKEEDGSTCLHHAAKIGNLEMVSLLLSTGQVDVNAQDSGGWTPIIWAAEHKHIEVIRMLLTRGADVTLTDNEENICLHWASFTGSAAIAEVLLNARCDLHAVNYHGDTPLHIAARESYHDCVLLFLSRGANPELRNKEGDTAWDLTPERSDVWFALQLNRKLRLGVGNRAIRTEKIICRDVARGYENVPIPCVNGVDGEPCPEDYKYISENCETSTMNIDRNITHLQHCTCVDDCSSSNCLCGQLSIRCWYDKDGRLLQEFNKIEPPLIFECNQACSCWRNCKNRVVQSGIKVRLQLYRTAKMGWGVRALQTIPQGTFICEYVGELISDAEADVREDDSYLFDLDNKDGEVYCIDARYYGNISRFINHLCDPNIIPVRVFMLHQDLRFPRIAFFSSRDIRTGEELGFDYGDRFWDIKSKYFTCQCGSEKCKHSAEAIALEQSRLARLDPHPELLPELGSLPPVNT
SMILES,Potency,"activity, negative = inhibition"
O=C(CSc1n[nH]c(-c2ccco2)n1)Nc1sc2c(c1C(=O)Nc1ccccc1)CCCC2,"inconclusive: 20 µM [inhibitor, partial curve, poor fit]",–
CCCN1CCC(=O)N(CCOc2ccccc2)CC1,"inconclusive: 89.1 µM [inhibitor, single point]",–
COc1ccccc1Oc1ccc(-c2cnc3ccccc3n2)cc1[N+](=O)[O-],–,inconclusive: -73.6% [inhibitor]
CS(=O)(=O)N1CCC[C@@]2(CCN(c3ncccn3)C2)C1,–,inactive: 0.727% [at 12.7 µM]
O=CN1CCN(C(=S)NC(=O)c2ccc(Cl)cc2)CC1,active: 44.7 µM,–
COc1ccc(-n2c(SCc3ccccn3)nc3c(c2=O)SCC3)cc1OC,inactive,–
C=CCN(CC=C)C(=O)COC(=O)c1ccc(Sc2ncn[nH]2)c([N+](=O)[O-])c1,active: 28.2 µM,–
Cc1ccccc1N(CC(=O)N/N=C/c1ccc(N(C)C)cc1)C(=O)c1ccccc1,"inconclusive: 7.08 µM [inhibitor, partial curve, poor fit]",–
Cn1c(SCc2cc(=O)[nH]c(C(C)(C)C)n2)nnc1C(F)(F)F,"inconclusive: 79.4 µM [inhibitor, single point]",–
Cc1ccc2nc(NC(=O)COC(=O)c3ccco3)sc2c1,active: 2.82 µM,–
CCC1(C)CC2(CCCN(CCC(=O)c3ccccc3)C2)CCO1 (centres undefined),active: 50.1 µM,–
O=C1CC(C(=O)Nc2ccc(C(=O)O)cc2)C(c2ccccc2)O1 (centres undefined),"inconclusive: 89.1 µM [inhibitor, single point]",–
COc1ccc(N2CCN(C(=O)c3ccc(CNS(=O)(=O)c4cccc(OC)c4)cc3)CC2)cc1,"inconclusive: 70.8 µM [inhibitor, single point]",–
Cc1ccc(NC(=O)CC(=O)c2ccc([N+](=O)[O-])cc2)cc1S(=O)(=O)Nc1cccc(Cl)c1,–,inconclusive: -62.7% [inhibitor]
COc1ccc(N2CCC(CNC(=S)Nc3cc(C)ccc3C)C2)cc1 (centres undefined),"inconclusive: 3.16 µM [inhibitor, partial curve, poor fit]",–
O=C(O)CCc1ccc(-c2ccccc2)n1NC(=O)c1sc2ccccc2c1Cl,active: 50.1 µM,–
CC1CN(c2nc3c(c(=O)n(Cc4ccc(Cl)cc4)c(=O)n3C)n2C)CC(C)O1 (centres undefined),"inconclusive: 50.1 µM [inhibitor, partial curve, poor fit]",–
CCc1ccc(CNC(=O)CCCN2C(=O)CCn3nc(-c4cccn4C)cc32)cc1,"inconclusive: 31.6 µM [inhibitor, single point]",–
COc1ccc(-c2nc(C#N)c(N3CCc4ccccc4C3)o2)cc1OC,active: 28.2 µM,–
COc1ccc(C(=O)NCC(=O)OCC(=O)c2ccc(Cl)cc2)cc1OC,"inconclusive: 39.8 µM [inhibitor, single point]",–
Cc1ccc(C(=O)Nc2cc(-c3nc4ncccc4o3)ccc2C)c(C)c1,inactive,–
COc1cc(O)c(C(C)=O)c(CC(=O)O)c1,"inconclusive: 0.891 µM [inhibitor, full curve, poor fit]",–
O=C1c2ccsc2SCCN1Cc1c(Cl)cccc1Cl,"inconclusive: 25.1 µM [inhibitor, partial curve, poor fit]",–
O=C(O)c1cc2nccc(-c3ccco3)n2n1,active: 50.1 µM,–
COC(C(=O)Nc1ccc(F)cc1F)c1ccccc1 (centres undefined),"inconclusive: 39.8 µM [inhibitor, single point]",–

SMILES,Potency,"activity, negative = inhibition"
CCOc1ccc(OCC)c(NC(=O)CN2CCN(c3cccc(C)c3)CC2)c1,active: 3.55 µM,–
Clc1cccc(NCc2ccccc2)n1,"inconclusive: 8.91 µM [inhibitor, full curve, poor fit]",–
Cc1nc2c(C(=O)N3CCN(c4ccccn4)CC3)cnn2c(C)c1Cc1cccc(Cl)c1,"inconclusive: 50.1 µM [inhibitor, partial curve, poor fit]",–
Cc1ccc(C(=O)c2c(N)c(-c3nc(-c4ccc5c(c4)OCO5)cs3)c3ccccn23)cc1C,inactive,–
Cc1cc(Nc2ccccc2)c2c([N+](=O)[O-])ccc(C)c2n1,active: 11.2 µM,–
CC(=O)Nc1ccc(NC(=O)Cc2ccc(S(=O)(=O)N3CCCCC3)s2)cc1,"inconclusive: 28.2 µM [inhibitor, single point]",–
COc1ccc(NC(=O)Nc2cccc(NC(C)=O)c2)c(OC)c1,inactive,–
CC1CC(C)CN(CCOCCSc2ccccc2)C1 (centres undefined),"inconclusive: 10 µM [inhibitor, partial curve, poor fit]",–
Cc1ccc(N(CC(=O)Nc2ccccc2-c2ccccc2)S(=O)(=O)c2ccccc2)c(C)c1,active: 8.91 µM,–
C=CCn1c(SCC(=O)Nc2cc(C)c(Cl)cc2OC)nnc1-c1ccco1,"inconclusive: 39.8 µM [inhibitor, partial curve, poor fit]",–
COc1ccc(OCC(=O)NC(=S)Nc2ccc(N3CCOCC3)c(Cl)c2)cc1,"inconclusive: 11.2 µM [inhibitor, partial curve, poor fit]",–
COc1cccc(NC(=O)CCCCCn2nnc3ccccc3c2=O)c1,inactive,–
O=C1C(=O)N(Cc2cccnc2)C(c2ccccn2)/C1=C(/O)c1ccccc1 (centres undefined),"inconclusive: 31.6 µM [inhibitor, single point]",–
CCNC(=O)c1nc[nH]c1C(=O)NCC,inactive,–
Cc1ccc2oc(=O)c3cc(C(=O)NCCCN4CCc5ccccc5C4)sc3c2c1,active: 31.6 µM,–
CCOc1ccccc1NC(=O)Cn1ncc2c(=O)oc3ccc(C)cc3c21,inactive,–
CSC1=N/C(=C\c2ccc(C)o2)C(=O)S1,active: 12.6 µM,–
CC1(C)CC(=O)c2cc(OCC(=O)NCCCN3CCN(c4ccc(F)cc4)CC3)ccc2O1,"inconclusive: 50.1 µM [inhibitor, partial curve]",–
CC(C)=CCN1CCN(Cc2ccc(Sc3nncn3C)o2)CC1CCO (centres undefined),"inconclusive: 89.1 µM [inhibitor, partial curve, poor fit]",–
CC(C)c1ccc(OCC(O)CN2CCN(c3ccccc3)CC2)cc1 (centres undefined),–,inconclusive: -66.3% [inhibitor]
Clc1ccc(OCc2nn3c(C4CCCCC4)nnc3s2)cc1,active: 8.91 µM,–
COc1ccc(CCC(=O)NCC(c2ccco2)N2CCc3ccccc32)cc1 (centres undefined),–,inconclusive: -82.9% [inhibitor] [at 2.33 µM]
O=C(c1ccccc1)c1ccc2n1CC[C@H]2C(=O)O,inactive,–
O=C(Cc1cc(=O)[nH][nH]1)N/N=C/c1ccccc1[N+](=O)[O-],inactive,–
COc1ccc(C2C(C#N)=C(N)N3C(=C2C#N)Sc2ccccc23)cc1 (centres undefined),active: 6.31 µM,–

SMILES,Potency,"activity, negative = inhibition"
CCOC(=O)c1c(-c2ccc(C)o2)csc1NC(=O)CSc1nncs1,active: 10 µM,–
CCN(CC)CCn1c(N)cc(=O)[nH]c1=O,"inconclusive: 70.8 µM [inhibitor, partial curve, poor fit]",–
Cc1ccccc1-n1c(O)cc(=O)[nH]c1=S,active: 44.7 µM,–
O=C1/C(=C/c2ccncc2)CCc2ccccc21,inactive,–
CCc1nc(SCC(=O)NC2CCCC2)c2c(=O)n(C)c(=O)n(C)c2n1,inactive,–
Cn1ccnc1SCC(=O)c1cccc(C(F)(F)F)c1,"inconclusive: 89.1 µM [inhibitor, single point]",–
O=C1NC(=O)[C@@H]2C3c4ccccc4C=CN3[C@H](C(=O)c3cccs3)[C@H]12 (some centres undefined),active: 10 µM,–
CCOC(=O)N1CCN(C2=C(NS(=O)(=O)c3ccc(NC(C)=O)cc3)C(=O)c3ccccc3C2=O)CC1,active: 28.2 µM,–
COc1ccc(C(=O)NC(=S)NNC(=O)Cc2cccs2)cc1,active: 11.2 µM,–
CCN1C(=O)/C(=C2/C=Cc3ccccc3N2CC)SC1=S,active: 12.6 µM,–
CN(C)C=Nc1nonc1-c1ccccc1,inactive,–
COCC1CCN(C(=O)C2CCC(=O)N(Cc3cccc(F)c3)C2)CC1 (centres undefined),inactive,–
COc1ccc(N2CCN(C(c3ccccc3)c3sc4nc(-c5ccco5)nn4c3O)CC2)cc1 (centres undefined),"inconclusive: 3.16 µM [inhibitor, full curve, poor fit]",–
CCOc1ccc(NC2=NCCC(=O)N2Cc2cccs2)cc1,"inconclusive: 2.51 µM [inhibitor, partial curve, poor fit]",–
CC(C)C[C@@H]1NC(=O)[C@H](C(C)C)NC(=O)c2cc([N+](=O)[O-])cc(I)c2OCC[C@@H](C(N)=O)NC1=O,active: 44.7 µM,–
CC1CCCN(CCOc2cccc(Oc3ccccc3)c2)C1 (centres undefined),active: 8.91 µM,–
O=C1CS/C(=N\C(=O)N2c3ccccc3Sc3ccccc32)N1,active: 5.62 µM,–
CCCCOP(=O)(c1ccc(N(C)C)cc1)C(O)c1ccc(N(C)C)cc1 (centres undefined),active: 2.24 µM,–
CCOc1ccccc1C(=O)NC1(C(F)(F)F)NC(=O)N(CCc2ccc(OC)c(OC)c2)C1=O (centres undefined),inactive,–
COc1ccc(CN(C)CCc2ccccn2)cc1OC,active: 3.16 µM,–
COc1ccc(S(=O)(=O)NCC(c2ccc(F)cc2)N2CCOCC2)cc1Br (centres undefined),"inconclusive: 7.08 µM [inhibitor, partial curve, poor fit]",–
Cc1cc(C=O)c(C)n1-c1ccc(N2CCOCC2)c([N+](=O)[O-])c1,"inconclusive: 89.1 µM [inhibitor, single point]",–
Cc1cc(F)ccc1S(=O)(=O)Nc1ccc2oc3c(c2c1)CC(C)CC3 (centres undefined),"inconclusive: 39.8 µM [inhibitor, partial curve, poor fit]",–
Cc1cccc(C2C=C(c3ccc(C)c(C)c3)Nc3nnnn32)c1 (centres undefined),"inconclusive: 12.6 µM [inhibitor, partial curve]",–

# — PubChem BioAssay AID504332 (National Center for Advancing Translational Sciences (NCATS), 2011)
